The full ranking holds about 33,000 sequences; the median of “E-score (-0.5 to 0.5)” is about -0.036, and the highest 2% start at about 0.37. The list shows a part of the results.
target: T1, Yer064c (UniProt P40041); test: PBM E-score (8-mer binding enrichment) (E-score (-0.5 to 0.5)); higher = stronger / more preferred TF binding; most listed sequences are background and not binding sites; conditions: protein concentration: 200 nM; construct: GST-full length
T1 sequence: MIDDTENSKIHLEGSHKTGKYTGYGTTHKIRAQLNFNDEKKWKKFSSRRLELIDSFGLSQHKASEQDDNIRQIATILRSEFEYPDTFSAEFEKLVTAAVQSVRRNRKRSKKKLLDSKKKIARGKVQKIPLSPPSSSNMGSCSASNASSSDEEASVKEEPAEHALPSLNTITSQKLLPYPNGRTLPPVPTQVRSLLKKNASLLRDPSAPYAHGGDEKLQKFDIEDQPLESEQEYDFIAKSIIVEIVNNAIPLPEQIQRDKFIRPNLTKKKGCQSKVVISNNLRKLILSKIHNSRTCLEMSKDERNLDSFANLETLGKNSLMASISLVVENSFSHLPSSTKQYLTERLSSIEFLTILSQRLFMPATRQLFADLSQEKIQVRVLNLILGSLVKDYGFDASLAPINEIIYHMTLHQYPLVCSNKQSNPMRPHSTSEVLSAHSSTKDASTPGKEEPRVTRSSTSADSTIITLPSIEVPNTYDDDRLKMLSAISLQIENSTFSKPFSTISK
Experimental: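 Universal 'all 10-mer' protein binding microarrays (Agilent AMADID 015681) probed with GST-tagged S. cerevisiae TFs (full-length or DBD) made by in vitro transcription/translation (PURExpress), about 100-200 nM. Bound TF was detected with fluorescent anti-GST. Each ungapped 8-mer (which stands for itself and its reverse complement) is scored by the PBM enrichment score (E-score), a modified Wilcoxon-Mann-Whitney statistic from -0.5 to +0.5, computed with the Universal PBM Analysis Suite. Scale: above 0.35 generally sequence-specific binding.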

Q: With CAAATGAC as the sequence, how does the “PBM E-score” value read?
A: The value was 0.214.

Q: GTCATCAA was tested. Which “PBM E-score” value did it give?
A: The value was 0.346.

Q: AACTCAAC was tested. Which “PBM E-score” value did it give?
A: Its value is 0.123.

Q: How did the “PBM E-score” value turn out when GCCAGGCC was run?
A: Its value is -0.198.

Q: For ACCTCGGA, which “PBM E-score” value is on record?
A: The value was 0.0224.

Q: For AAGCGAGA, which “PBM E-score” value is on record?
A: Its value is -0.083.

Q: Which “PBM E-score” value does the source give for GACCCGGC here?
A: Its value is -0.189.

Q: With GCGGCACA as the sequence, how does the “PBM E-score” value read?
A: The value was -0.125.

Q: CACGTTGA was tested. Which “PBM E-score” value did it give?
A: Its value is 0.136.

Q: With GGTTCGGA as the sequence, how does the “PBM E-score” value read?
A: The value was -0.157.

Q: For TCTACAGA, which “PBM E-score” value is on record?
A: Its value is 0.0215.

Q: For ATTTAACC, which “PBM E-score” value is on record?
A: The value was 0.232.

Q: For GTTTAGCA, which “PBM E-score” value is on record?
A: The value was -0.0742.

Q: For AGCAAACG, which “PBM E-score” value is on record?
A: Its value is -0.133.

Q: Which “PBM E-score” value does the source give for ATGAGCGA here?
A: Its value is 0.215.

Q: AACAACTA was tested. Which “PBM E-score” value did it give?
A: Its value is 0.0556.

Q: With TCCAGCGA as the sequence, how does the “PBM E-score” value read?
A: Its value is -0.102.

Q: GCAACTAC was tested. Which “PBM E-score” value did it give?
A: Its value is -0.0606.

Q: How did the “PBM E-score” value turn out when CGAGGAGC was run?
A: The value was -0.00253.

Q: For TAGAACAA, which “PBM E-score” value is on record?
A: The value was -0.0456.

Q: Which “PBM E-score” value does the source give for CACGACTA here?
A: The value was 0.403.

Q: With GCTAGCCA as the sequence, how does the “PBM E-score” value read?
A: Its value is -0.107.

Q: How did the “PBM E-score” value turn out when GTTACCGA was run?
A: The value was -0.0297.

Q: How did the “PBM E-score” value turn out when CTCTATGC was run?
A: Its value is -0.0535.

Q: How did the “PBM E-score” value turn out when CACGGGCC was run?
A: Its value is -0.297.

Q: With GTCCGAAC as the sequence, how does the “PBM E-score” value read?
A: Its value is 0.0287.

Q: For AGGGGCAC, which “PBM E-score” value is on record?
A: Its value is -0.233.

Q: CGCGTATA was tested. Which “PBM E-score” value did it give?
A: Its value is -0.116.

Q: With CGGATTAA as the sequence, how does the “PBM E-score” value read?
A: Its value is 0.208.

Q: Which “PBM E-score” value does the source give for CCGTGGAC here?
A: Its value is -0.173.

Q: With CACAAACG as the sequence, how does the “PBM E-score” value read?
A: The value was 0.0911.

Q: For AGTTCAGG, which “PBM E-score” value is on record?
A: Its value is 0.0736.

Q: CGGGATAA was tested. Which “PBM E-score” value did it give?
A: Its value is -0.199.

Q: Which “PBM E-score” value does the source give for AGTGGACA here?
A: Its value is -0.198.

Q: With CCTTTGGC as the sequence, how does the “PBM E-score” value read?
A: The value was -0.0726.

Q: How did the “PBM E-score” value turn out when ATCTAGCG was run?
A: The value was -0.158.

Q: Which “PBM E-score” value does the source give for CACCTCCG here?
A: The value was -0.0859.

Q: CACTAGAA was tested. Which “PBM E-score” value did it give?
A: The value was -0.0823.

Q: CGAATTTC was tested. Which “PBM E-score” value did it give?
A: Its value is -0.179.

Q: How did the “PBM E-score” value turn out when CCGGCGGC was run?
A: The value was 0.0452.

Q: For CCACAAGA, which “PBM E-score” value is on record?
A: The value was -0.00958.

Q: For CACGACAC, which “PBM E-score” value is on record?
A: Its value is -0.043.

Q: How did the “PBM E-score” value turn out when AGACACAC was run?
A: The value was 0.0522.

Q: How did the “PBM E-score” value turn out when ATAGCATG was run?
A: The value was -0.142.

Q: GGATAAAA was tested. Which “PBM E-score” value did it give?
A: The value was 0.0658.

Q: How did the “PBM E-score” value turn out when ATGTTGTC was run?
A: Its value is -0.23.

Q: For CGAACCCC, which “PBM E-score” value is on record?
A: The value was -0.2.

Q: Which “PBM E-score” value does the source give for AGGTGCGC here?
A: The value was -0.267.

Q: How did the “PBM E-score” value turn out when CTGAACCC was run?
A: The value was 0.00071.

Q: Which “PBM E-score” value does the source give for CCAACGAA here?
A: The value was -0.0691.

Q: Which “PBM E-score” value does the source give for GTACTCCA here?
A: Its value is 0.116.

Q: Which “PBM E-score” value does the source give for GAATTCTA here?
A: The value was 0.0224.

Q: For GAAGTTCC, which “PBM E-score” value is on record?
A: The value was -0.18.

Q: For GCGACAAC, which “PBM E-score” value is on record?
A: The value was 0.0736.

Q: For AAGTAACC, which “PBM E-score” value is on record?
A: Its value is 0.0622.

Q: How did the “PBM E-score” value turn out when ATGCGTCA was run?
A: The value was -0.123.

Q: Which “PBM E-score” value does the source give for GCCTAATA here?
A: The value was -0.216.

Q: With TAGACCGA as the sequence, how does the “PBM E-score” value read?
A: Its value is 0.0897.

Q: How did the “PBM E-score” value turn out when CCTCATTC was run?
A: The value was -0.176.

Q: Which “PBM E-score” value does the source give for CTATAAAA here?
A: Its value is 0.0973.

Q: ATCGTATG was tested. Which “PBM E-score” value did it give?
A: Its value is 0.0471.

Q: How did the “PBM E-score” value turn out when CCTTCCCA was run?
A: The value was -0.0175.

Q: How did the “PBM E-score” value turn out when AGTGGGAT was run?
A: The value was -0.114.

Q: AAGACCCA was tested. Which “PBM E-score” value did it give?
A: Its value is -0.0256.

Q: For GCACACGC, which “PBM E-score” value is on record?
A: The value was -0.298.

Q: Which “PBM E-score” value does the source give for AAATAACA here?
A: The value was -0.0589.

Q: CTAATACA was tested. Which “PBM E-score” value did it give?
A: Its value is -0.0303.

Q: Which “PBM E-score” value does the source give for TAATCTAA here?
A: The value was 0.266.

Q: For GATACGGC, which “PBM E-score” value is on record?
A: The value was -0.289.

Q: Which “PBM E-score” value does the source give for CCAGAAGC here?
A: The value was -0.233.

Q: With ATAGCCCC as the sequence, how does the “PBM E-score” value read?
A: Its value is -0.305.

Q: Which “PBM E-score” value does the source give for GCCAAGCA here?
A: The value was -0.143.

Q: How did the “PBM E-score” value turn out when CAGATCAA was run?
A: The value was -0.0706.

Q: Which “PBM E-score” value does the source give for CCATCAAA here?
A: The value was -0.12.

Q: How did the “PBM E-score” value turn out when GTATCATA was run?
A: The value was 0.0771.

Q: CTGGACTC was tested. Which “PBM E-score” value did it give?
A: The value was 0.307.

Q: Which “PBM E-score” value does the source give for AAGCCTTC here?
A: The value was -0.121.

Q: How did the “PBM E-score” value turn out when CGGTGAAG was run?
A: The value was 0.156.

Q: ACGTCAGA was tested. Which “PBM E-score” value did it give?
A: The value was -0.0241.

Q: With CAAGTCGC as the sequence, how does the “PBM E-score” value read?
A: Its value is 0.245.

Q: With CCATCTCA as the sequence, how does the “PBM E-score” value read?
A: The value was 0.00615.

Q: ACCTTCAA was tested. Which “PBM E-score” value did it give?
A: Its value is 0.0218.

Q: For ACGAGCAC, which “PBM E-score” value is on record?
A: The value was 0.0531.

Q: AGAAATTG was tested. Which “PBM E-score” value did it give?
A: Its value is 0.0708.

Q: How did the “PBM E-score” value turn out when GGCCTATA was run?
A: Its value is -0.188.

Q: CCATCGCA was tested. Which “PBM E-score” value did it give?
A: The value was 0.0533.
